Measured values reported in PMC4336329 (PLoS ONE, 2015).
Among all 310,000 compounds or so, about 14,000 (4.5%) showed an effect of 50% or more. The effect is printed as a negative number. The list shows a part of the results.

The compounds below were run against human ether-à-go-go-related gene (hERG) potassium channel (human, UniProt Q12809) (assay: primary screen, population patch clamp on CHO cells stably expressing hERG).
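Note: peak tail current of the secondary pulse compared with the same well before compound.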

Chain of human ether-à-go-go-related gene (hERG) potassium channel (Q12809 whole entry, looked up): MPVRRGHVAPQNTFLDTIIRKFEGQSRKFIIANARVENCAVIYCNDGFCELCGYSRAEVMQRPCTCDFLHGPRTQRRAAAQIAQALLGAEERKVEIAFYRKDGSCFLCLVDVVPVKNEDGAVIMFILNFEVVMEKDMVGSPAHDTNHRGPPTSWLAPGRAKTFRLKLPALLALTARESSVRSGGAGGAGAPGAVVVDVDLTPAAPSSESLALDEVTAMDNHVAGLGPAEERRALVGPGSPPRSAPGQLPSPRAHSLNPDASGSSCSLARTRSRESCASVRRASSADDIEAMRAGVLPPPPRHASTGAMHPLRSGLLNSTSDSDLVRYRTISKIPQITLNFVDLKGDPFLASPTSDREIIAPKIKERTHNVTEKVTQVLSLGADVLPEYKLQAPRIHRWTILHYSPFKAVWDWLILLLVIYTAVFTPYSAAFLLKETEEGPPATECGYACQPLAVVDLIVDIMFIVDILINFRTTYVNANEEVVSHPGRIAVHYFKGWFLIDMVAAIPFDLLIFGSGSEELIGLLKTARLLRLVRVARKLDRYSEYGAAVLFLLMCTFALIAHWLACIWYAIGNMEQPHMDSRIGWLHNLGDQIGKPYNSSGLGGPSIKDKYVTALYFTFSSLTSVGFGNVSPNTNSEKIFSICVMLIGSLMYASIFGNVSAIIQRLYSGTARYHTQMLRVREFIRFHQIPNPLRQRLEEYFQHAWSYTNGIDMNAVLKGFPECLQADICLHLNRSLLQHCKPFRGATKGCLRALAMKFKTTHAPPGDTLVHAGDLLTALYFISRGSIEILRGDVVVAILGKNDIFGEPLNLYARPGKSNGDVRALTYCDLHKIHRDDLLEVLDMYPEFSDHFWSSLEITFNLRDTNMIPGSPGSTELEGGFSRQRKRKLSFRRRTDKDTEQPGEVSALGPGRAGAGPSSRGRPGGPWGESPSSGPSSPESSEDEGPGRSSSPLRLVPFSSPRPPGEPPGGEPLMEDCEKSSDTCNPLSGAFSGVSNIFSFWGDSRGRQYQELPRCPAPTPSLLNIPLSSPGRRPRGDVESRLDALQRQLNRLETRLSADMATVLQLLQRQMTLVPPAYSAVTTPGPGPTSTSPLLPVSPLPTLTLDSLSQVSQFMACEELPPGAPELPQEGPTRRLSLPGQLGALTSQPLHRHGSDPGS

Compound | hERG current change (%, negative = inhibition) at 10uM [%]
O=C(c1ccc(Cl)cc1)[C@@H]1[C@@H]2C(=O)N(c3ccccc3)C(=O)[C@@H]2C2c3ccccc3C=NN21 (stereo partly shown) | -4.15
O=C(c1ccco1)N1CCC(c2nc3c(nnn3Cc3ccccc3Cl)c(=O)[nH]2)CC1 | -48.6
Nc1nc(CSC(=S)N2CCOCC2)nc(Nc2ccc(F)cc2)n1 | 7.31
CC(NC(=O)Cc1ccc(F)cc1)C(c1cccs1)N1CCN(C)CC1 (stereo not shown) | -15.2
O=C(CSc1ccc2ccccc2n1)NC1CC1 | 11.3
O=S(=O)(c1ccc(NC(=S)NCc2cccnc2)cc1)N1CCCCC1 | -7.75
CSc1nnc(-c2ccccc2N=Cc2c(C)[nH]n(-c3ccc4ccccc4c3)c2=O)c(=O)[nH]1 | -13.2
COCCC1CCCCN1C(=O)c1cccc(OC2CCN(C3CCCC3)CC2)c1 (stereo not shown) | 17.6
Cl.O=C(CN1CCN(c2ccc(F)cc2)CC1)NCc1cccs1 | -15.4
CCOc1ccc(OCC)c(NC(=O)C2CCCN(S(=O)(=O)c3cnc[nH]3)C2)c1 (stereo not shown) | 6.54
O=C(O)c1cccnc1SCc1ccccc1 | -1.22
CC(C)NS(=O)(=O)c1ccc(OCC(=O)N2CCN(c3ccccc3)CC2)cc1 | -8.08
Cc1nc(NC(C)(C)CO)c([N+](=O)[O-])cc1[N+](=O)[O-] | -3.55
O=C1CN(S(=O)(=O)c2cc(C(=O)O)ccc2Cl)c2ccccc2N1 | 15.3
CNC(=O)O/N=C(\C)Cc1nnn(-c2cc(C)on2)n1 | 11.2
CCN(CC)c1cc2nc(C)n(Cc3ccccc3)c(=O)c2cc1NC(=O)C1CC1 | -14.2
CC(=O)Nc1ccc(Sc2ccccc2C(=O)O)cc1 | 17.5
CN(Cc1ccc(C(F)(F)F)cc1)C(=O)c1ccc(Oc2ccccc2)cc1 | 13.1
COc1ccc(Nc2cc(Sc3ccc(OC)cc3)ncn2)cc1 | -37.9
COc1ccc(NS(=O)(=O)c2ccc(F)cc2F)cn1 | 10.4
O=[N+]([O-])c1ccc(N2CCSCC2)cc1 | -10.4
COC(=O)N/N=C(\C)c1ccc(OC(F)F)cc1OC(F)F | 2.08
Cc1ccccc1-n1c(Cn2c(=O)sc3ccccc32)nnc1SCC(=O)N1CCOCC1 | 2.07
O=C(c1ccc(CS(=O)(=O)c2ccccc2)o1)N1CCN(c2ccccc2)CC1 | -11.6
CC(C)(CNC(=O)c1ccc(NS(=O)(=O)c2ccc(Br)cc2)cc1)N1CCOCC1 | -19.4
CC1(C)C(=O)OC(/C=C\c2cccc([N+](=O)[O-])c2)C(C)(C)C1=O (stereo not shown) | 5.39
C/C=C/C(=O)Nc1cccc(C2=NOC3(C2)C[C@@H](C(N)=O)N(C(=O)/C(C)=C/C)C3)c1 (stereo partly shown) | 9.42
Cc1ccc(C(=O)N[C@H](C(=O)OCc2cc(=O)n3c(n2)sc2ccccc23)C(C)C)cc1 | -18.8

Compound | hERG current change (%, negative = inhibition) at 10uM [%]
COc1ccc2ccccc2c1CNC(=O)CC1C(=O)NCCN1CC(C)(C)C (stereo not shown) | 4.41
Brc1ccc(-c2nn3c(Cc4ccccc4)nnc3s2)o1 | 3.39
Cc1cc(C)nc(NC(=O)c2ccc(Cl)c([N+](=O)[O-])c2)n1 | -0.62
C/C(=N\OCC(=O)NCC(F)(F)F)c1cc2ccccc2o1 | -1.58
O=C(Nc1ccc(F)cc1)c1ccc(S(=O)(=O)NCc2cccnc2)cc1 | -2.09
C[C@@H]1NC(=O)[C@@]2(C)[C@@H](c3ccccc3)[C@H]3COc4ccc(Cl)cc4[C@@H]3N2C1=O | 15.4
CCn1cc(C(=O)N[C@H](C(=O)NC(C)(C)CO)C(C)C)c(=O)c2cc3c(cc21)OCO3 | 21.9
CN(C(=O)CN1C(=O)/C(=C/c2ccccc2Cl)SC1=S)C1CCS(=O)(=O)C1 (stereo not shown) | -4.31
CCc1sc(C(=O)NCCCN2CCCC2=O)cc1Br | 5.8
Cc1ccc2oc(-c3cccc(NC(=O)c4ccc(Br)o4)c3)nc2c1 | 0.0188
COc1ccccc1NC(=S)N1CCCc2ccccc21 | 8.53
CC(C)(C)P(=O)(NCc1ccccc1)c1ccccc1 (stereo not shown) | 25.2
O=C(COc1ccccc1)NC1C(=O)N2C(C(=O)O)=C(Cl)CSC12 (stereo not shown) | 2.5
C=CCNc1cnn(-c2ccccc2)c(=O)c1Cl | 23.5
CCOC(=O)c1sc2nc(C)[nH]c(=O)c2c1C | 13.2
O=C(/C=C/c1ccccc1)Nc1sc2c(c1C(=O)O)CCC2 | 5.92
CCCN1CCC[C@H](c2cccc(O)c2)C1.Cl | 0.216
CCC(C)NC(=O)c1ccc(Cl)c(S(=O)(=O)Nc2ccccc2N2CCOCC2)c1 (stereo not shown) | -6.74
OCCCNc1ncnc2oc(-c3ccccc3)c(-c3ccccc3)c12 | -13.2
COc1ccccc1CN1CC(C(=O)NCCc2ccccc2Cl)CCC1=O (stereo not shown) | -9.19
CCN1CCCC1CNC(=O)Cn1ncc2c(=O)oc3ccc(C)cc3c21 (stereo not shown) | -2.33
COc1ccccc1/C=C1\SC(=O)N(CCC(=O)N(C)C2CCS(=O)(=O)C2)C1=O (stereo not shown) | -12.1
COc1ccc(CN2CC(=O)N(c3ccc(C)c(C)c3)C2=S)cc1OC | 12.2
CCO[C@@H]1OC(C(=O)Nc2ccccc2)=C[C@H](c2ccc3c(c2)OCO3)[C@H]1CCCO | -39.2
Cc1noc2ncnc(SCc3ccc(C(F)(F)F)cc3)c12 | -4.54
CN1CCc2c(n(CC(O)CN3CCN(CCO)CC3)c3ccccc23)C1=O.Cl (stereo not shown) | 2.24
COc1ccc(NC(=O)NCc2cccn2C)c(OC)c1 | 7.83
